Some of the results follow. Repeats are few or missing, and single values can be far off.
These compounds were tested on MZ2-MEL (assay: cell count relative to DMSO control; melanoma cells; higher = more viable cells). Conditions: library dose: standard library concentration; 72 h.
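Further: cells treated in 1,536-well plates, then fixed and DAPI-stained, with nuclei counted from automated high-throughput microscope images.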

SMILES | cell count [%]
CCCCCCCCc1ccc(CCC(N)(CO)CO)cc1 [fingolimod] + Cc1cc([N+](=O)[O-])ccc1NS(=O)(=O)c1cc(Cl)ccc1Cl [FH535] (first compound 10 µM, partner dose 5 µM) | 45.4
CN(NC(=O)CC(=O)NN(C)C(=S)c1ccccc1)C(=S)c1ccccc1 + COc1cc2c(Oc3ccc4[nH]c(C)cc4c3F)ncnc2cc1OCCCN1CCCC1 [cediranib] (first compound 0.03 µM, partner dose 2 µM) | 102
CCc1ccc(CCOc2ccc(CC3SC(=O)NC3=O)cc2)nc1 (stereo not given) [pioglitazone] + O=C1NC(=O)/C(=C/c2ccc(-c3ccc(F)cc3O)o2)S1 [AS252424] (first compound 10 µM, partner dose 5 µM) | 82.1
Cc1ccc(NC(=O)c2cccc(N(C)C)c2)cc1NC(=O)c1ccc(O)cc1 + CCCCCCCCCCCC1=C(O)C(=O)C=C(O)C1=O [Embelin] (first compound 10 µM, partner dose 6 µM) | 67.2
Cc1ccc(NC(=O)c2cccc(N(C)C)c2)cc1NC(=O)c1ccc(O)cc1 + COc1ccc2c(c1)CCC1C2CCC2(C)C(NCCCCCCN3C(=O)C=CC3=O)CCC12 [U73122] (first compound 10 µM, partner dose 2 µM) | 83.5
CC(C)(C)c1cnc(CSc2cnc(NC(=O)C3CCNCC3)s2)o1 + CN(NC(=O)CC(=O)NN(C)C(=S)c1ccccc1)C(=S)c1ccccc1 [STA4783] (first compound 0.05 µM, partner dose 0.03 µM) | 73.2
CN(NC(=O)CC(=O)NN(C)C(=S)c1ccccc1)C(=S)c1ccccc1 + COc1cc(N2CCC(N3CCN(C)CC3)CC2)ccc1Nc1ncc(Cl)c(Nc2ccccc2S(=O)(=O)C(C)C)n1 [NVP-TAE684] (first compound 0.03 µM, partner dose 0.4 µM) | 87.8
CN(NC(=O)CC(=O)NN(C)C(=S)c1ccccc1)C(=S)c1ccccc1 + CCCCCCCCCCCC1=C(O)C(=O)C=C(O)C1=O [Embelin] (first compound 0.03 µM, partner dose 6 µM) | 90.3
CC(C)(C)c1cnc(CSc2cnc(NC(=O)C3CCNCC3)s2)o1 + O=C(Nc1ccccc1)c1cc([N+](=O)[O-])ccc1Cl [GW9662] (first compound 0.05 µM, partner dose 10 µM) | 60
CCCCCCCCc1ccc(CCC(N)(CO)CO)cc1 [fingolimod] + CCCS(=O)(=O)Nc1ccc(F)c(C(=O)c2c[nH]c3ncc(Cl)cc23)c1F [PLX4720] (first compound 10 µM, partner dose 0.4 µM) | 1.2
CCCCCCCCc1ccc(CCC(N)(CO)CO)cc1 [fingolimod] + O=C(O)C(=O)Nc1sc2c(c1C(=O)O)CCNC2 [TCS401] (first compound 10 µM, partner dose 8.33333 µM) | 43.5
CCc1ccc(CCOc2ccc(CC3SC(=O)NC3=O)cc2)nc1 (stereo not given) [pioglitazone] + COC(=O)c1sccc1S(=O)(=O)Nc1ccc(Nc2ccccc2)cc1OC [GSK0660] (first compound 10 µM, partner dose 5 µM) | 99.2
COc1cc2c(Oc3ccc4[nH]c(C)cc4c3F)ncnc2cc1OCCCN1CCCC1 [cediranib] + COc1cc(N2CCC(N3CCN(C)CC3)CC2)ccc1Nc1ncc(Cl)c(Nc2ccccc2S(=O)(=O)C(C)C)n1 [NVP-TAE684] (first compound 2 µM, partner dose 0.4 µM) | 85.8
CC(C)(C)c1cnc(CSc2cnc(NC(=O)C3CCNCC3)s2)o1 + CCCCCCCCCCCC1=C(O)C(=O)C=C(O)C1=O [Embelin] (first compound 0.05 µM, partner dose 6 µM) | 76.3
CCCCCCCCc1ccc(CCC(N)(CO)CO)cc1 [fingolimod] + CN1CCN(c2ccc3nc(-c4c(N)c5c(F)cccc5[nH]c4=O)[nH]c3c2)CC1 [Dovitinib] (first compound 10 µM, partner dose 0.5 µM) | 45.1
CCCCCCCCc1ccc(CCC(N)(CO)CO)cc1 [fingolimod] + COc1ccc2c(c1)CCC1C2CCC2(C)C(NCCCCCCN3C(=O)C=CC3=O)CCC12 [U73122] (first compound 10 µM, partner dose 2 µM) | 76.7
Cc1ccc(NC(=O)c2cccc(N(C)C)c2)cc1NC(=O)c1ccc(O)cc1 + Cc1cc(N2CCOCC2)cc2[nH]c(-c3c(NC[C@@H](O)c4cccc(Cl)c4)cc[nH]c3=O)nc12 [BMS536924] (first compound 10 µM, partner dose 1 µM) | 120
NC(=O)c1ccc(N(C(N)=O)c2c(F)cccc2F)nc1-c1ccc(F)cc1F + CCCCCCCCCCCC1=C(O)C(=O)C=C(O)C1=O [Embelin] (first compound 2 µM, partner dose 6 µM) | 115

SMILES | cell count [%]
NC(=O)c1ccc(N(C(N)=O)c2c(F)cccc2F)nc1-c1ccc(F)cc1F + Cn1nnc2c(C(N)=O)ncn2c1=O [temozolomide] (first compound 2 µM, partner dose 10 µM) | 86.4
CN(NC(=O)CC(=O)NN(C)C(=S)c1ccccc1)C(=S)c1ccccc1 + COc1ccc2c(c1)CCC1C2CCC2(C)C(NCCCCCCN3C(=O)C=CC3=O)CCC12 [U73122] (first compound 0.03 µM, partner dose 2 µM) | 94.3
NC(=O)c1ccc(N(C(N)=O)c2c(F)cccc2F)nc1-c1ccc(F)cc1F + CN(NC(=O)CC(=O)NN(C)C(=S)c1ccccc1)C(=S)c1ccccc1 [STA4783] (first compound 2 µM, partner dose 0.03 µM) | 109
Cc1ccc(NC(=O)c2cccc(N(C)C)c2)cc1NC(=O)c1ccc(O)cc1 + O=C(Nc1cccc(Cl)c1)Nc1ncc(CCNc2ncnc3ccsc23)s1 [SNS314] (first compound 10 µM, partner dose 0.004 µM) | 82.5
CCCCCCCCc1ccc(CCC(N)(CO)CO)cc1 [fingolimod] + COC(=O)c1sccc1S(=O)(=O)Nc1ccc(Nc2ccccc2)cc1OC [GSK0660] (first compound 10 µM, partner dose 5 µM) | 1.6
CCCCCCCCc1ccc(CCC(N)(CO)CO)cc1 [fingolimod] + CCCCCCCCCCCC1=C(O)C(=O)C=C(O)C1=O [Embelin] (first compound 10 µM, partner dose 6 µM) | 1.44
NC(=O)c1ccc(N(C(N)=O)c2c(F)cccc2F)nc1-c1ccc(F)cc1F + CN1CCN(c2ccc3nc(-c4c(N)c5c(F)cccc5[nH]c4=O)[nH]c3c2)CC1 [Dovitinib] (first compound 2 µM, partner dose 0.5 µM) | 66.8
CC(C)(C)c1cnc(CSc2cnc(NC(=O)C3CCNCC3)s2)o1 + NCC(=O)Nc1ccc(-n2nc(C(F)(F)F)cc2-c2ccc3c(ccc4ccccc43)c2)cc1 [OSU03012] (first compound 0.05 µM, partner dose 5 µM) | 88.3
CCCCCCCCc1ccc(CCC(N)(CO)CO)cc1 [fingolimod] + NC1(c2ccc(-c3nc4ccn5c(=O)[nH]nc5c4cc3-c3ccccc3)cc2)CCC1 [MK2206] (first compound 10 µM, partner dose 2 µM) | 22.2
CC(C)(C)c1cnc(CSc2cnc(NC(=O)C3CCNCC3)s2)o1 + Oc1cc(-c2nc(-c3ccccc3)[nH]c2-c2ccncc2)ccc1Cl [L779450] (first compound 0.05 µM, partner dose 1 µM) | 87.5
CCc1ccc(CCOc2ccc(CC3SC(=O)NC3=O)cc2)nc1 (stereo not given) [pioglitazone] + Oc1nc(-c2ccc(C(F)(F)F)cc2)nc2c1CSCC2 [XAV939] (first compound 10 µM, partner dose 10 µM) | 79
COc1cc2c(Oc3ccc4[nH]c(C)cc4c3F)ncnc2cc1OCCCN1CCCC1 [cediranib] + Cn1cc(/C=C2\C(=O)Nc3cccnc32)c2ccccc21 [GW441756] (first compound 2 µM, partner dose 2 µM) | 85.4
CCCCCCCCc1ccc(CCC(N)(CO)CO)cc1 [fingolimod] + Cn1cncc1[C@@](N)(c1ccc(Cl)cc1)c1ccc2c(c1)c(-c1cccc(Cl)c1)cc(=O)n2C [tipifarnib] (first compound 10 µM, partner dose 0.05 µM) | 1.37
CCc1ccc(CCOc2ccc(CC3SC(=O)NC3=O)cc2)nc1 (stereo not given) [pioglitazone] + Cc1cc([N+](=O)[O-])ccc1NS(=O)(=O)c1cc(Cl)ccc1Cl [FH535] (first compound 10 µM, partner dose 5 µM) | 75.6
CCCCCCCCc1ccc(CCC(N)(CO)CO)cc1 [fingolimod] + COCC[n+]1c2c(n(Cc3cnccn3)c1C)C(=O)c1ccccc1C2=O [YM155] (first compound 10 µM, partner dose 0.002 µM) | 1.29
NC(=O)c1ccc(N(C(N)=O)c2c(F)cccc2F)nc1-c1ccc(F)cc1F + O=C1NC(=O)/C(=C/c2ccc(-c3ccc(F)cc3O)o2)S1 [AS252424] (first compound 2 µM, partner dose 5 µM) | 87.8
NC(=O)c1ccc(N(C(N)=O)c2c(F)cccc2F)nc1-c1ccc(F)cc1F + Cc1nc(Nc2ncc(C(=O)Nc3c(C)cccc3Cl)s2)cc(N2CCN(CCO)CC2)n1 [dasatanib] (first compound 2 µM, partner dose 0.02 µM) | 54

Reference: the supplement of paper PMC4604168 (melanoma cell lines)
